Laboratory results published in ChEMBL document CHEMBL5308541, “MAIP: An Open-Source Tool to Enrich High-Throughput Screening Output and Identify Novel, Druglike Molecules with Antimalarial Activity” (ACS Med Chem Lett, 2023).
Hit rate of the full screen: of about 150,000 compounds, about 540 (0.36%) showed an effect of 50% or more. Some of the results follow.

Test system: Plasmodium falciparum
Test: Primary screen in NF54 nanoGlo assay, in single point, at 2uM, 72h; a lower Z score goes with more inhibition
Type: functional, Erythrocyte
Conditions: timepoint 72 hour

| Compound | % Inhibition | Z score |
| --- | --- | --- |
| O=C(NS(=O)(=O)CCC(F)(F)F)c1ccc(-c2noc(C(F)F)n2)cc1 | -4% | 0.55 |
| O=C(O)C1CC1C(=O)N1CCC(C(F)(F)F)CC1 (stereo not drawn) | -1% | 0.28 |
| N#Cc1cc(CN2CCCC[C@H]2c2cc[nH]n2)c(F)cc1F | -6% | 1.06 |
| CN(C)CC1CCC(NC2CCN(c3nccs3)CC2)CC1 (stereo not drawn) | -4% | 0.7 |
| CNC(=O)Cn1nnc(CO)c1CCc1ccccc1 | -5% | 0.8 |
| Cc1nn(C)cc1-c1cccc(C(=O)N2CCC(N3CCCCCC3)CC2)c1 | 5% | -1.07 |
| CCC(CO)(CO)NC(=O)c1ncc(C(C)(C)C)o1 | -4% | 0.63 |
| c1cc(CNc2ncnc3c2CCCC3)cc(-c2cnco2)c1 | -14% | 2.49 |
| O=C(NC[C@H](O)c1cccc(O)c1)c1cc(O)c2cccc(F)c2n1 | 5% | -1.14 |
| O[C@H]1CCN(c2ccnc(-c3cc(NC4CCCC4)nc4[nH]ccc34)n2)C1 | -3% | 0.6 |
| CNc1nc(N[C@H]2C[C@@H](c3cc(NCCO)ncn3)C2)nc2c1CCC2 | -11% | 2 |
| C[C@@H](CC(=O)N(CCO)CCOCCO)Cc1cccc(F)c1 | -14% | 2.11 |
| COC12CCC(Oc3ccccn3)CC1N(c1ncnc3[nH]ccc13)CC2 (stereo not drawn) | -5% | 0.91 |
| Cc1cc(C(N)=O)c(NC2COCC2N2CCN(C)CC2)nc1C (stereo not drawn) | -4% | 0.66 |
| CCCN(C)C[C@H]1CCN(c2nc(C)nc3[nH]ccc23)C1 | -4% | 0.63 |
| CCNc1ccc(Cl)cc1NC(=O)Cc1c(C)[nH]c2ccccc12 | -16% | 2.71 |
| CN(C)C(=O)CN1CCC(Nc2nc3ccc(Cl)cc3s2)C(O)C1 (stereo not drawn) | 0% | 0.02 |
| CCN(CC)CCNc1nc2cc(C)cc(C)c2s1 | 3% | -0.45 |
| CCn1ncc2cc(C(=O)N(C)[C@H]3CCN(C4CCN(C)CC4)C3)c(C)nc21 | 6% | -0.97 |
| COCCNc1nc2cc(C(=O)NC3CCCN4CCCC34)ccc2n1C (stereo not drawn) | -1% | 0.27 |
| CC(C)N1CCC(NC(=O)CN2CCCN(Cc3cnn(C)c3)CC2)CC1 | 0% | 0.01 |
| O=C(Nc1ncc(-c2ccccc2)s1)N1CCN(C2CCOCC2)CC1 | -1% | 0.23 |
| CCOc1ccc2nc(N3CCC(C(=O)N4CCNC(=O)[C@@H]4c4ccc(F)cc4)CC3)nc(C)c2c1 | -17% | 3.06 |
| Cn1ccc2c(-c3cccc([C@@H]4CCCN4)c3)ccnc21 | -15% | 2.27 |
| Oc1nc(CN2C[C@@H]3CCCCN3c3ccccc32)n[nH]1 | -21% | 3.2 |
| CC(c1nnnn1C1CC1)N(C)C[C@@H]1OCCN(C)[C@H]1c1ccccc1 (stereo partly drawn) | -2% | 0.44 |
| Nc1cnccc1-c1ccc(C(=O)N2CCC(N3CCCCC3)CC2)cc1 | 1% | -0.12 |

| Compound | % Inhibition | Z score |
| --- | --- | --- |
| COc1cc2nc(-c3cc(Cl)c(O)cc3C)nc(N)c2cc1OC | 2% | -0.41 |
| CC(C)N1CCN([C@H]2CCN(C(=O)c3ccc(F)c4ccncc34)C2)CC1 | -2% | 0.32 |
| c1ccc(-c2ccnc(CCNC3CCN(Cc4ccco4)CC3)n2)cc1 | 3% | -0.62 |
| CN(CCc1ccccn1)C(=O)c1ccc(-c2cc(-c3cccc(C(F)(F)F)c3)n[nH]2)cc1 | -1% | 0.15 |
| C[C@H](NC(=O)N1CCC(Oc2cnccn2)CC1)c1ccc2[nH]ncc2c1 | -7% | 1.32 |
| CC(=O)NC1CCC(Cc2nnc(NC3CCc4ccccc4C3)o2)C1 (stereo not drawn) | -11% | 2.42 |
| C[C@@H]1C[C@H](Cn2nnnc2Cc2ccccn2)C[C@H](C)O1 | 0% | -0.08 |
| Cc1cnc(NC2CC(C)OC(C)C2)nc1NC1CC(C)OC(C)C1 (stereo not drawn) | 21% | -3.61 |
| OCC1CCN(CCNCc2cccc3cn[nH]c23)CC1 | -4% | 0.87 |
| CN1CC[C@@]2(CCC1=O)CN(c1ncc(F)c(N3CCOCC3)n1)CCN2C | -8% | 1.33 |
| CN1CCCN(CCCN[C@@H](Cc2ccccc2)C2CC2)CC1 | 9% | -1.64 |
| COC(=O)CC1CN(C2CCc3c(F)cccc32)CCO1 (stereo not drawn) | -6% | 1.22 |
| CC(C)c1nnc(NCc2ccc3occc3c2)o1 | 2% | -0.37 |
| CN(Cc1cccc2cnccc12)C(=O)[C@@H]1C[C@@H](NC(=O)CC2CCCC2)CN1 | 5% | -0.98 |
| OC1CN(c2nc(-c3ccncc3)nc3c2CNC3)CC1N1CCOCC1 (stereo not drawn) | -16% | 2.84 |
| Cc1cc(N2CCCCC2)nc(NCCNC(=O)Cc2noc3ccccc23)n1 | 13% | -1.94 |
| COc1ccccc1-c1cc(C(=O)Nc2ccc(N3CC[C@H](OC)C3)cc2)n[nH]1 | -1% | 0.25 |
| CCCN1CCC(Nc2cc(C)nc3ccccc23)CC1 | 58% | -8.81 |
| OCCN1CCC(NCCc2cc(Cl)cc(Cl)c2)CC1 | 28% | -5.52 |
| CN1C[C@@H](c2ccccc2)CC2(CCN(c3nc(N)nc4[nH]ncc34)CC2)C1 | -8% | 1.74 |
| O=C(Nc1cc(-c2cccc(F)c2)on1)N1CCC[C@@H]1CN1CCOCC1 | -5% | 1.17 |
| Nc1nc(N[C@H]2CCN(c3ccccc3C(F)(F)F)C2)cc(-n2cccn2)n1 | -2% | 0.44 |
| CN1CCCN(CC(=O)NCCCN2CCCC[C@@H]2CO)CC1 | 0% | 0.01 |
| CC(C)Nc1cc(-c2ccc(C(=O)N(C)[C@H]3CCN(C)C3)cc2)ncn1 | -8% | 1.34 |
| Fc1ccc(N2CC[C@H](NCCCc3nc4cc(Cl)ccc4[nH]3)C2)cc1 | -8% | 1.4 |
| CCc1cc2c(NCc3nc4cc(F)ccc4[nH]3)ncnc2s1 | -17% | 3 |
| Cc1nc(Nc2ccc(NS(=O)(=O)c3ccc(OC(F)(F)F)cc3)cc2)cc(-n2ccnc2)n1 | 19% | -2.84 |
